Measurements published in the antibiotic and cytotoxicity screens of Wong et al. (2023).
Some of the results follow.

system: S. aureus RN4220; assay: growth inhibition call (relative growth <= 0.2); conditions: 50 µM

Growth inhibition call, inactive:
CC(C)NC(=O)N(C)C[C@@H]1OCCCC[C@@H](C)Oc2ccc(NS(=O)(=O)c3cn(C)cn3)cc2C(=O)N([C@H](C)CO)C[C@H]1C, Cc1ccc(S(=O)(=O)Nc2ccc3c(c2)CC(=O)N([C@H](C)CO)C[C@H](C)[C@H](CN(C)Cc2ccc(Oc4ccccc4)cc2)O3)cc1, COCCN1C[C@H]2CN(Cc3cnn(C)c3)C[C@H]2C1=O, C[C@@H]1CN([C@H](C)CO)C(=O)c2cc(C#Cc3ccccc3)cnc2O[C@H]1CN(C)S(=O)(=O)c1ccccc1F, COc1ccc(NC(=O)Nc2ccc3c(c2)C(=O)N([C@@H](C)CO)C[C@@H](C)[C@H](CN(C)Cc2ccncc2)OCCCC[C@H](C)O3)cc1, C[C@@H]1CN([C@@H](C)CO)C(=O)c2cc(NC(=O)Nc3ccccc3)ccc2O[C@H]1CN(C)CC1CCCCC1, COCC(=O)Nc1ccc2c(c1)OC[C@@H](C)N(C(=O)Cc1ccccn1)C[C@@H](C)[C@@H](OC)CN(C)C2=O, C[C@@H]1CCN(C(=O)[C@H](CCCNC(=N)N)NS(=O)(=O)c2cccc3c2NC[C@H](C)C3)[C@@H](C(=O)O)C1, Cc1ccc(S(=O)(=O)Nc2cccc3c2O[C@@H](CN(C)S(=O)(=O)c2c(C)noc2C)[C@@H](C)CN([C@H](C)CO)C3=O)cc1, O=C(C[C@@H]1CC[C@H]2[C@@H](COC[C@H](O)CN2S(=O)(=O)c2ccc(F)cc2)O1)N[C@@H]1CCN(Cc2ccccc2)C1, CO[C@H]1CN(C)C(=O)c2ccc(NC(=O)NC(C)C)cc2OC[C@@H](C)N(Cc2ccc(-c3ccccn3)cc2)C[C@@H]1C, Oc1cc(O)cc(O)c1, O=C(C[C@@H]1CC[C@H]2[C@@H](COC[C@@H](O)CN2Cc2ccccc2F)O1)N[C@H]1CCN(Cc2ccccc2)C1, CCCCC(=O)OC1(C(=O)CO)C(C)CC2C3CCC4=CC(=O)C=CC4(C)C3(F)C(O)CC21C (centres undefined), Cc1cc(C(=O)Nc2cccc3c2O[C@@H](CN(C)C(=O)Nc2ccc4c(c2)OCO4)[C@@H](C)CN([C@H](C)CO)C3=O)n(C)n1, CCCNC(=O)c1cc2c(c(-c3cccc(-c4ccc(F)cc4)c3)n1)[C@H](CCO)N([S@@](=O)C(C)(C)C)C2, C[C@@H]1CN([C@H](C)CO)C(=O)c2cc(NC(=O)Nc3ccc(C(F)(F)F)cc3)ccc2O[C@@H](C)CCCCO[C@@H]1CN(C)Cc1ccc2c(c1)OCO2, C[C@@H]1CN([C@@H](C)CO)C(=O)c2cc(NC(=O)c3ccncc3)ccc2O[C@@H]1CN(C)S(=O)(=O)c1ccc(F)cc1, C[C@@H]1CN([C@H](C)CO)C(=O)c2cc(NC(=O)Nc3ccc(C(F)(F)F)cc3)ccc2O[C@@H](C)CCCCO[C@H]1CN(C)S(=O)(=O)c1cn(C)cn1, C[C@H]1CN([C@@H](C)CO)C(=O)Cc2cc(NC(=O)CCCN(C)C)ccc2O[C@@H]1CN(C)S(=O)(=O)c1ccccc1, CN1CCN(C(=O)C[C@H]2C[C@@H]3c4cc(NC(=O)c5ccc6c(c5)OCO6)ccc4O[C@@H]3[C@H](CO)O2)CC1, C[C@@H]1CN([C@H](C)CO)C(=O)c2cc(C#CCN(C)C)cnc2O[C@H]1CN(C)C(=O)c1cnccn1, C[C@H](CO)N1C[C@H](C)[C@@H](CN(C)C(=O)CN2CCOCC2)Oc2ncc(-c3cncnc3)cc2C1=O, C[C@@H]1CCCCO[C@@H](CN(C)Cc2ccc(Cl)c(Cl)c2)[C@@H](C)CN([C@@H](C)CO)C(=O)c2cc(NC(=O)c3ccccc3)ccc2O1, COc1ccc(NC(=O)Nc2cccc3c2O[C@H](CN(C)S(C)(=O)=O)[C@H](C)CN([C@@H](C)CO)C3=O)cc1, C[C@H]1CN([C@@H](C)CO)C(=O)c2cc(NC(=O)Nc3ccc(C(F)(F)F)cc3)ccc2O[C@@H]1CN(C)C(=O)Nc1cccc2ccccc12, CNC[C@H](O)c1cccc(O)c1, Cc1ccc(S(=O)(=O)Nc2ccc3c(c2)C(=O)N([C@@H](C)CO)C[C@H](C)[C@H](CN(C)S(C)(=O)=O)OCCCC[C@@H](C)O3)cc1, Cc1ccc(S[C@]2(C(=O)NCC(F)(F)F)CC(=O)N(Cc3cc(C(F)(F)F)cc(C(F)(F)F)c3)[C@@H]2c2ccc(CO)cc2)cc1
